The values that follow come from publication PMC4336329 (PLoS ONE, 2015).

SMILES strings stand for the structures. The campaign covered roughly 310,000 compounds. About 14,000 (4.5%) showed an effect of 50% or more. Effects have a minus sign here. Some of the results follow.
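Further: peak tail current of the secondary pulse compared with the same well before compound.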

In the test the target is human ether-à-go-go-related gene (hERG) potassium channel (human, UniProt Q12809). Description: primary screen, population patch clamp on CHO cells stably expressing hERG.
human ether-à-go-go-related gene (hERG) potassium channel, sequence (Q12809 whole entry, looked up): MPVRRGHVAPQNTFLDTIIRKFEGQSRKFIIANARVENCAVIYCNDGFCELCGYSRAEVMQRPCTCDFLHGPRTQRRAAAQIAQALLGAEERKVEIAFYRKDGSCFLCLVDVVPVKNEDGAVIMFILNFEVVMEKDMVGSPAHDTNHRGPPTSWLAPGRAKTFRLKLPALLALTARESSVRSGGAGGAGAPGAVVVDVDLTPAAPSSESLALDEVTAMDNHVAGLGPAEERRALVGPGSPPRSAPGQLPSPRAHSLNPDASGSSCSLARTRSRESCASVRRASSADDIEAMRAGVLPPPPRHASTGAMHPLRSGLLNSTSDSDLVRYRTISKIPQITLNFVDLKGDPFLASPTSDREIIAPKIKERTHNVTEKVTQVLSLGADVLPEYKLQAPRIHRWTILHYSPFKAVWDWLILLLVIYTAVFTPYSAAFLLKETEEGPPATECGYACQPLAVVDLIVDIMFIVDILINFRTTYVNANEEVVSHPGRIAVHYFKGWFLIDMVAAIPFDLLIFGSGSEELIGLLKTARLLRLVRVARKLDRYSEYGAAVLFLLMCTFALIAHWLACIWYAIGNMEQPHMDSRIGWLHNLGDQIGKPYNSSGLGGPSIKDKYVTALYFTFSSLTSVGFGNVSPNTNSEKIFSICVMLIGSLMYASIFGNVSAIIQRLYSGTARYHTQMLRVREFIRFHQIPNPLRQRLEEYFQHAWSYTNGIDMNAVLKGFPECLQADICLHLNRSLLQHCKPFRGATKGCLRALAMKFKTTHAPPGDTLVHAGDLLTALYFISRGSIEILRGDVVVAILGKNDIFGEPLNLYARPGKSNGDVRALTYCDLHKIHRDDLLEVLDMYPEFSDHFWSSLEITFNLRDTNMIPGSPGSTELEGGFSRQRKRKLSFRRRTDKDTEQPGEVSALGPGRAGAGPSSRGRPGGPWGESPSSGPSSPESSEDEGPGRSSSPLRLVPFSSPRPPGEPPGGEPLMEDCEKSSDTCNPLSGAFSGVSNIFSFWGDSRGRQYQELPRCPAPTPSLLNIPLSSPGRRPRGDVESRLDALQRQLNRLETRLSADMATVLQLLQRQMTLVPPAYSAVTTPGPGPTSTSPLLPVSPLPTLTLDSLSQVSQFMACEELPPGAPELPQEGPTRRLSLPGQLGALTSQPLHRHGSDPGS
With `Cc1ccccc1Nc1nc(N)nc(COC(=O)CCNS(=O)(=O)c2ccccc2)n1`, the “hERG current change (%, negative = inhibition) at 10uM” value was -9.32%.

Regarding `CCOC(=O)C1(C(F)(F)F)N=C(c2cccnc2)OC(N2CCOCC2)=N1` (stereo not drawn), the “hERG current change (%, negative = inhibition) at 10uM” value was determined as 5.46%.

For `CCOCCCNC(=S)N(Cc1ccccc1)Cc1nc2ccccc2c(=O)[nH]1`, the “hERG current change (%, negative = inhibition) at 10uM” value is given as -22.3%. On to `CN(C)Cc1n[nH]c(=O)c2ccccc12`, for which the “hERG current change (%, negative = inhibition) at 10uM” value was 6.19%. In the case of `COc1ccc(CCNC(=O)CSc2nc(=O)[nH]c3c2CCC3)cc1OC`, the “hERG current change (%, negative = inhibition) at 10uM” value is given as 7.68%. For `N/C(Cn1cncn1)=N\NC(=O)C(=O)Nc1cccc(C(F)(F)F)c1`, the “hERG current change (%, negative = inhibition) at 10uM” value amounted to 26.6%. As for `CCOc1ccc(C=NCC(O)c2ccccc2)cc1` (stereo not drawn), the “hERG current change (%, negative = inhibition) at 10uM” value was 14.5%. Under `CCOC(=O)CC1(c2ccccc2)CCOC(C)(C)C1` (stereo not drawn) stands 10.2%. As for `Cc1ccc(S(=O)(=O)N(C)C)cc1NC(=S)NC1CCCC(C)C1C` (stereo not drawn), the “hERG current change (%, negative = inhibition) at 10uM” value was 4.66%. Turning to `Cc1ccc(NC2CCCCC2NS(=O)(=O)c2ccccc2)c(C)c1` (stereo not drawn), the “hERG current change (%, negative = inhibition) at 10uM” value is reported as 13.4%. Take `Fc1ccccc1/C=N/Nc1ncnc2ccccc12`: the “hERG current change (%, negative = inhibition) at 10uM” value is 8.16%. With `Cc1cc(C)nc(SC2=CS(=O)(=O)c3ccccc32)n1`, the “hERG current change (%, negative = inhibition) at 10uM” value is recorded as 8.25%. `O=C(COC(=O)c1nc(Cl)ccc1Cl)NNC(=O)c1ccccc1`: the “hERG current change (%, negative = inhibition) at 10uM” value was 10.9%. `NC(=O)c1nsc(C(=O)N(c2ccccc2)C(C(=O)NCC2CCCO2)c2ccc3ncccc3c2)c1N` (stereo not drawn): the “hERG current change (%, negative = inhibition) at 10uM” value was 0.298%. With `CCN(CC)C(=O)C(=O)N/N=C/c1ccc(C(=O)OC)cc1`, the “hERG current change (%, negative = inhibition) at 10uM” value is recorded as -30.8%.

As for `Cc1ccc(-c2cc(C(F)(F)F)n3nc(C(=O)NCCCn4ccnc4)cc3n2)cc1C`, the “hERG current change (%, negative = inhibition) at 10uM” value is on record as -20.6%. With `COc1cc2c(c(OC)c1OC)-c1ccc(O)c(=O)cc1C(NC(C)=O)CC2` (stereo not drawn), the “hERG current change (%, negative = inhibition) at 10uM” value is 13.7%. In the case of `Cn1cccc1/C=C1\SC(=O)N(c2ccccc2)C1=O`, the “hERG current change (%, negative = inhibition) at 10uM” value turned out to be 0.217%. For `COC(=O)CSc1ncnc2c1sc1nc3c(cc12)COC(C)(C)C3` the value was 23.5%; for `CCc1cc(-c2n[nH]c(CCC(=O)O)c2-c2nc3ccccc3n2C)c(O)cc1O`, 11.2%; for `O=C(O)c1ccc(CSc2nnc(-c3ccc(Cl)cc3)o2)cc1`, 26.5%. Regarding `COCCn1nnnc1CN1CCN(C(=O)c2ccco2)CC1`, the “hERG current change (%, negative = inhibition) at 10uM” value is 9.58%. For `COc1cccc(COC(=O)c2ccc3c(=O)n4c(nc3c2)CCC4)c1OC` the value was 11.6%; for `O=[N+]([O-])c1ccc2nc(CCCO)[nH]c2c1`, 13.8%. As to `CCCCCC(=O)NNC(=S)NC(=O)c1cccc([N+](=O)[O-])c1`, the “hERG current change (%, negative = inhibition) at 10uM” value stood at 19%.

In the case of `Cc1cc(C)n(/N=C/c2cc(Cl)cc(Cl)c2O)c(=O)c1`, the “hERG current change (%, negative = inhibition) at 10uM” value is reported as 8.88%.

Turning to `Cc1ccc(SCC(=O)NC2CCS(=O)(=O)C2)cc1C` (stereo not drawn), the “hERG current change (%, negative = inhibition) at 10uM” value is 7.98%. Turning to `Cc1ccc(-n2c(-c3cccnc3)n[nH]c2=S)c(C)c1`, the “hERG current change (%, negative = inhibition) at 10uM” value turned out to be 0.148%.

Take `O=C1CSC(c2cccnc2)N1Cc1ccc(Cl)cc1` (stereo not drawn): the “hERG current change (%, negative = inhibition) at 10uM” value is on record as 1.89%.

Take `O=C(CSc1n[nH]c(-c2cc(Cl)ccc2Cl)n1)NCCN1C(=O)CSC1=O`: the “hERG current change (%, negative = inhibition) at 10uM” value was 4.27%.

Turning to `O=C(COc1ccc(Cl)cc1)N1CCCCCCC1`, the “hERG current change (%, negative = inhibition) at 10uM” value is -12.2%.

`O=C(COC(=O)c1cccnc1Cl)NCCCc1ccccc1`: the “hERG current change (%, negative = inhibition) at 10uM” value is listed as -21.7%.

For the compound `O=C(Nc1ccc(Cl)c(Cl)c1)OCc1cncs1`, the “hERG current change (%, negative = inhibition) at 10uM” value is reported as -9.6%. For `O=C(CN1C(=O)c2ccccc2S1(=O)=O)NCCSCc1cccc(Cl)c1` the value was 2.86%; for `COc1ccc(/C=C/C(=O)NC(=S)Nc2ccccn2)cc1`, 10.7%; for `CCc1ccc(/C=N/NC(=O)c2cc(-c3ccccc3OC)nc3ccccc23)s1`, 9.69%. For the compound `CCC1CCCCN1c1nc(-c2cccc(OC)c2O)nc2ccccc12` (stereo not drawn), the “hERG current change (%, negative = inhibition) at 10uM” value came out at 9.2%. For the compound `CC(=O)c1sc(NC(=O)c2ccco2)nc1-c1ccccc1`, the “hERG current change (%, negative = inhibition) at 10uM” value was 19.4%. In the case of `OC12CCCCC1C(c1ccc3c(c1)OCO3)N(Cc1ccc(F)cc1)CC2` (stereo not drawn), the “hERG current change (%, negative = inhibition) at 10uM” value is -22.7%. With `CS(=O)(=O)CCC(C(=O)N1CCOCC1)N1C(=O)c2cc(Cl)c(Cl)cc2C1=O` (stereo not drawn), the “hERG current change (%, negative = inhibition) at 10uM” value is 4.86%.

As to `CCCn1c2ccccc2c2cnn(CC(=O)NCCOC)c(=O)c21`, the “hERG current change (%, negative = inhibition) at 10uM” value is -5.71%. For `COc1ccc(CCNC(=O)c2ccc(CN3CCOCC3)cc2)cc1`, the “hERG current change (%, negative = inhibition) at 10uM” value is recorded as -7.5%.

Take `COc1ccc(OCc2n[nH]c(=S)n2-c2ccc(C)cc2)cc1`: the “hERG current change (%, negative = inhibition) at 10uM” value turned out to be 0.659%.

On to `COCCCNC(=O)CSc1nc2cc(C(=O)NCCOC)ccc2c(=O)n1Cc1ccc2c(c1)OCO2`, for which the “hERG current change (%, negative = inhibition) at 10uM” value was -4.37%.

Regarding `O=P(O)(O)c1cc(-c2ccccc2)oc1-c1ccccc1`, the “hERG current change (%, negative = inhibition) at 10uM” value is listed as -9.94%. As for `O=C(COc1ccc2c3c(c(=O)oc2c1)CCC3)NCC1CCC(C(=O)O)CC1` (stereo not drawn), the “hERG current change (%, negative = inhibition) at 10uM” value was found to be 16.1%.

Consider `Cc1ccc(Cn2ccc(NC(=O)c3nn(C)cc3Cl)n2)cc1`, for which the “hERG current change (%, negative = inhibition) at 10uM” value is reported as -8.14%. For `Cc1ccc(-n2c(=O)c3sccc3n(CC(=O)N3CCCC3)c2=O)cc1`, the “hERG current change (%, negative = inhibition) at 10uM” value is recorded as -7.83%. For `CCC(=O)Nc1c(C)n[nH]c1C` the value was 14.6%; for `CSc1ccc(C(=O)C2CCCN(C(=O)Cc3nonc3C)C2)cc1` (stereo not drawn), -2.13%; for `CC(=O)c1ccc(NC(=O)c2cccc(NC(=O)c3ccccc3)c2)cc1`, 2.17%. Consider `Cc1cc(C)c2oc(C(=O)N(Cc3ccccc3)C3CCS(=O)(=O)C3)cc(=O)c2c1` (stereo not drawn), for which the “hERG current change (%, negative = inhibition) at 10uM” value is recorded as -14.3%. In the case of `COC1CCCN(C(=O)c2cccc(OC3CCN(S(=O)(=O)N(C)C)CC3)c2)C1` (stereo not drawn), the “hERG current change (%, negative = inhibition) at 10uM” value stood at 16.1%. For `CC(=O)c1ccc(OCc2cc(C(=O)N(C)CCN3CCOCC3)no2)cc1` the value was 14.9%; for `CCN(C(=O)/C=C/c1cc(OC)c(OC)c(OC)c1)C1CCCCC1`, -0.894%.

Consider `O=C(COC(=O)/C=C/c1ccccc1)Nc1cccnc1Cl`, for which the “hERG current change (%, negative = inhibition) at 10uM” value is -0.586%.

As to `Cc1nn(C)c(C)c1/C=N/NC(=O)C(C)(C)Oc1ccc(Cl)cc1`, the “hERG current change (%, negative = inhibition) at 10uM” value is -12.2%.
